This note sets out measurements from article PMC4336329 (PLoS ONE, 2015).

SMILES strings stand for the structures. The whole screen tested about 310,000 compounds, of which about 2,200 (0.71%) showed an effect of 50% or more. Effects have a minus sign here. Some of the results follow.

The target in the assay is human ether-à-go-go-related gene (hERG) potassium channel (human, UniProt Q12809). The experiment in a line: primary screen, population patch clamp on CHO cells stably expressing hERG.
Sequence of human ether-à-go-go-related gene (hERG) potassium channel (Q12809 whole entry, looked up): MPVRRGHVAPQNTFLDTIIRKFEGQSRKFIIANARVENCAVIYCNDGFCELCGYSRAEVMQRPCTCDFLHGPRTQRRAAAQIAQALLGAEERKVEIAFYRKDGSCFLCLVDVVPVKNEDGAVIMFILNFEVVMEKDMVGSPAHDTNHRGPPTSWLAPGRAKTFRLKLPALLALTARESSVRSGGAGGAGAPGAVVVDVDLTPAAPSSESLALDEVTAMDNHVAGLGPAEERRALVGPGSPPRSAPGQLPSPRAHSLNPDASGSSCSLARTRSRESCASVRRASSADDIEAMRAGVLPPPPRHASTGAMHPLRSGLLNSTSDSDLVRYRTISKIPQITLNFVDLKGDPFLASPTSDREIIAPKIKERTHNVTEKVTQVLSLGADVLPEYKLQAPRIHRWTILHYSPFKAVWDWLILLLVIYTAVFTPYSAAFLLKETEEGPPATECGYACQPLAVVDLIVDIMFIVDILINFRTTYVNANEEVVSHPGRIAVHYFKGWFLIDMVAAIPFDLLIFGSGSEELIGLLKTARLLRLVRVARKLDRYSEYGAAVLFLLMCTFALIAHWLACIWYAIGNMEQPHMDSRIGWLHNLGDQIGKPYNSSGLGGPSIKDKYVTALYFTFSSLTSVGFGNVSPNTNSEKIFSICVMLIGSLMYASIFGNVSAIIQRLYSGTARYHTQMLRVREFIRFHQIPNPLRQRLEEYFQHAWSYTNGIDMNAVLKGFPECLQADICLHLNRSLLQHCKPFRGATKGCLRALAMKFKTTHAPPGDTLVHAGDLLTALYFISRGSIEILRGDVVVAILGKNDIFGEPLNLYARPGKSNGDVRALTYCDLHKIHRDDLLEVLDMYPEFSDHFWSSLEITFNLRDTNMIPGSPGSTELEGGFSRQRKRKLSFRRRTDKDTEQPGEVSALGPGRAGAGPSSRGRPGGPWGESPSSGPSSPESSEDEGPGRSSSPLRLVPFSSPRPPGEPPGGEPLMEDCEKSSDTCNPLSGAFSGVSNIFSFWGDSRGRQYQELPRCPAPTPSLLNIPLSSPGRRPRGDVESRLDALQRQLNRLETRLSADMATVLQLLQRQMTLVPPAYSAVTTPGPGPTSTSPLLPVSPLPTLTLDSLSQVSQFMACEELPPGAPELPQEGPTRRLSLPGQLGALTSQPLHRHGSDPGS
As to `Cc1cccc(OCC(=O)NCC(=O)N/N=C/c2ccc(N(C)C)cc2)c1`, the “hERG current change (%, negative = inhibition) at 1uM” value is recorded as -9.84%. Next, `CN(CC(=O)Nc1cccc(F)c1)C(=O)/C=C/c1ccc(Br)s1`: 10.9%; `COc1cccc(CNC(=O)C(C)n2ccc3cc(S(=O)(=O)N4CCCC4)ccc32)c1` (stereo not shown): 11.9%; `COc1ccccc1N1CCN(c2ncnc3nc[nH]c23)CC1`: 6.12%. The same measure for `CCOC(=O)c1ccc(OCc2c(C)noc2C)cc1`: 3.79%; for `Cc1nn(CC(N)=O)c(=O)c2ccccc12`: -2.76%; for `Cc1ccc(Sc2ncccc2O)cc1`: 13.4%. `CCOc1ccc(N(C(C)C(=O)NN=C2CCCCCCC2)S(C)(=O)=O)cc1` (stereo not shown): the “hERG current change (%, negative = inhibition) at 1uM” value is reported as 13.6%. As to `O=C(N/C(=C\c1ccccc1)C(=O)N1CCOCC1)c1ccccc1Br`, the “hERG current change (%, negative = inhibition) at 1uM” value turned out to be 22.1%. The same measure for `Cc1ccccc1Cn1nc(C)c(NC(=O)/C=C/c2cnn(C)c2C)c1C`: 10.5%; for `O=c1[nH]c(CSc2nnc(-c3cccnc3)n2C2CCCCC2)nc2ccccc12`: 12.1%. Take `CC1CCCCN1c1nc2nonc2nc1N1CCCCC1C` (stereo not shown): the “hERG current change (%, negative = inhibition) at 1uM” value is given as -3.06%. The same measure for `O=C1C=C(O)c2c(O)cc(O)c(O)c2C1=O`: 19.5%; for `CCCN1C(=O)C2(C(C(=O)c3ccc(C)o3)=C(O)C(=O)N2CCCN2CCOCC2)c2ccccc21` (stereo not shown): 2.89%. Consider `COc1ccc(C(=O)Nc2ccc3c(c2)OCCO3)cc1[N+](=O)[O-]`, for which the “hERG current change (%, negative = inhibition) at 1uM” value was 11.3%. As for `CC1=C(C(=O)Nc2ccccc2)C(c2ccco2)C(C#N)=C(SCC(=O)OC(C)C)N1` (stereo not shown), the “hERG current change (%, negative = inhibition) at 1uM” value was 0.326%.

Turning to `COc1ccc(OC)c(S(=O)(=O)N2CCC(NC(=O)c3ccccc3)CC2)c1`, the “hERG current change (%, negative = inhibition) at 1uM” value stood at 20%. Take `CC1=C(/C=C/C(C)=C/C=C/C(C)=C/C(=O)Nc2ccc(O)cc2)C(C)(C)CCC1`: the “hERG current change (%, negative = inhibition) at 1uM” value turned out to be 17.7%. The same measure for `C=CCSC1=NNC(c2ccc(C(C)(C)C)cc2)=NN1`: 0.984%. The same measure for `COc1cc(OC)cc(C(=O)Nc2ccc3nc4n(c(=O)c3c2)CCCC4)c1`: 17.5%; for `COC(=O)C1=C(c2ccc(OC(F)(F)F)cc2)C[C@@H]2CC[C@H]1N2C(=O)N1CCC(O)CC1`: -0.247%; for `Cc1ccnc(NC(=O)c2ccc(S(=O)(=O)NCc3ccco3)cc2)c1`: 15.3%. For the compound `Cc1cccc(/C=N/NC(=O)c2cccc(Cl)c2)n1`, the “hERG current change (%, negative = inhibition) at 1uM” value is reported as 8.95%.

`O=C(NCCCN1CCOCC1)c1cc(-c2cccs2)on1`: the “hERG current change (%, negative = inhibition) at 1uM” value is recorded as -7.51%. The same measure for `COc1ccc(NC(=O)CN2CCCCC2)c([N+](=O)[O-])c1`: 8.66%. `Cc1cc(Br)c(NC(=O)COC(=O)CSc2nnc(-c3ccc(Cl)cc3)o2)c(Br)c1`: the “hERG current change (%, negative = inhibition) at 1uM” value is given as 11%. The same measure for `CC(=O)C1=C(O)C(=O)N(Cc2ccccc2)C1c1cccs1` (stereo not shown): 6.06%. Next, `C(#Cc1ccccc1)C[N+]1(CC#Cc2ccccc2)CCCC1.[Br-]`: -17.4%; `Cc1ccc(C(=O)Nc2ccc(S(=O)(=O)Nc3cnc4ccccc4n3)cc2)cc1`: 14%. As for `CSCCC(NC(=O)c1ccco1)C(=O)Nc1cc(C)ccn1` (stereo not shown), the “hERG current change (%, negative = inhibition) at 1uM” value was -28.3%. The same measure for `O=C(NC1CCCC1)C(c1cccnc1)N(C(=O)c1ccco1)c1cccc(F)c1` (stereo not shown): 19.1%.

For the compound `CCNC(=O)COC(=O)c1csc2c1CCCC2`, the “hERG current change (%, negative = inhibition) at 1uM” value came out at 15.4%. Turning to `COc1ccc(CCNC(=O)CSc2nc3c(c(=O)n(C)c(=O)n3C)n2C(C)C)cc1OC`, the “hERG current change (%, negative = inhibition) at 1uM” value is -14.5%. On to `Cc1ccc(S(=O)(=O)N/N=C/c2cc([N+](=O)[O-])ccc2O)cc1[N+](=O)[O-]`, for which the “hERG current change (%, negative = inhibition) at 1uM” value was determined as 11.5%. Turning to `COC(=O)c1ccc(NS(=O)(=O)c2ccc3c(c2)oc(=O)n3C)cc1`, the “hERG current change (%, negative = inhibition) at 1uM” value worked out at 5.99%. Next, `COc1ccc(S(=O)(=O)N2CCCCCC2)cc1C(=O)Nc1ccccn1`: 5.18%; `CC(C)C[C@@H](C(=O)O)N(Cc1cccc(CN([C@@H](CC(C)C)C(=O)O)S(C)(=O)=O)c1)S(C)(=O)=O`: 6.31%; `COc1cc2c(cc1OC)CN(C(=O)CCCN1C(=O)c3ccccc3C1=O)CC2`: 6.77%. The same measure for `N#Cc1c(NC(=O)C2C3C=CC(C3)C2C(=O)O)sc2c1CCCCC2` (stereo not shown): 12.6%; for `COc1ccccc1NC(=O)N1CCC(C(=O)c2ccc(F)cc2)CC1`: 12.9%.

As for `O=C(Cn1cnc2c(nnn2Cc2ccc(Cl)cc2)c1=O)c1ccccc1`, the “hERG current change (%, negative = inhibition) at 1uM” value is 11.2%.

As to `C=CC[n+]1c(-c2ccc(Cl)cc2Cl)csc1Nc1c(C)n(C)n(-c2ccccc2)c1=O.[Cl-]`, the “hERG current change (%, negative = inhibition) at 1uM” value was determined as 12.6%. The same measure for `O=C1c2ccccc2C(=O)c2c1cccc2N1CCCC1`: 8.54%.
